Assay results reported in the supplement of paper PMC12217912.
The list shows a part of the results. The full chains were built here from the parent and the listed change. Values near 0.05 are background.

B1: TEV protease; numbered along this chain (parent)
chain: MGESLFKGPRDYNPISSSICHLTNESDGHTTSLYGIGFGPFIITNKHLFRRNNGTLVVQSLHGVFKVKDTTTLQQHLVDGRDMIIIRMPKDFPPFPQKLKFREPQREERICLVTTNFQTKSMSSMVSDTSCTFPSGDGIFWKHWIQTKDGQCGSPLVSTRDGFIVGIHSASNFTNTNNYFTSVPKNFMELLTNQEAQQWVSGWRLNADSVLWGGHKVFMVKPEEPFQPVKEATQL

Variants of: B1
Assay: raw area under fraction-flipped curve 0-4 h after induction (AUC4h, not background-subtracted), DNA-recorder readout of cleavage of the substrate (dimensionless); higher = more cleavage of the substrate by the protease variant
Conditions: temperature: 34 °C; time window: 0-4 h after rhamnose induction
Experimental: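 In vivo DNA recorder in E. coli TOP10(DE3) ΔrhaA at 34 °C. Each TEVp single-site mutant (parent TEVp 0) is paired with a single-site variant of the 7-mer TEVs (canonical ENLYFQ|S). The substrate sits between flexible linkers in a Bxb1-sfGFP-TEVs-SsrA fusion, so cleavage stabilises Bxb1 and speeds flipping of a recombination array, read by NGS. The value is the raw area under the fraction-flipped curve over 0-4 h after rhamnose induction (AUC4h), with ≥20 reads per time point. It is not background-subtracted; inactive controls average about 0.047.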
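Also: Bxb1 expression induced with 0.2% (w/v) L-rhamnose at OD600 near 0.5, cultures sampled hourly, flipped fraction per protease–substrate barcode pair counted by paired-end Illumina sequencing.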

Variant	area with substrate ENLYFQC	area with substrate ENLYFQD	area with substrate ENLYFQH	area with substrate ENLYFQI	area with substrate ENLYFQK	area with substrate ENLYFQL	area with substrate ENLYFQQ	area with substrate ENLYFQR	area with substrate ENLYFQS	area with substrate ENLYFQW	area with substrate ENLYFQF	area with substrate ENLYFQG	area with substrate ENLYFQM	area with substrate ENLYFQN	area with substrate ENLYFQP	area with substrate ENLYFQT	area with substrate ENLYFQV	area with substrate ENLYFQY	area with substrate ENLYFQE
MGESLFKGPRDYNPISSSICHLTNESDGHTTSLYGIGFGPFIITNKHLFRRNNGTLVVQSLHGVFKVKDTTTLQQHLVDGRDMIIIRMPKDFPPFPQKLKFREPQREERICLVTTNFQTKSMSSMVSDTSCTFPSGDGIFWKHWIQTKDGQCGSPLVSTRDGFIVGIHSASNFTNTNNYFTSVPKNFMELLTNQEAQQWVSGWRLNADSFLWGGHKVFMVKPEEPFQPVKEATQL [V210F]	0.125	0.0545	0.063	0.0535	0.0616	0.0564	0.063	0.057	0.0924	0.0605									
MGESLFKGPRDYNPISSSICHLTNESDGHTTSLYGIGFGPFIITNKHLFRRNNGTLVVQSLHGVFKVKDTTTLQQHLVDGRDMIIIRMPKDFPPFPQKLKFREPQREERICLVTTNFQTKSMSSMVSDTSCTFPSGDGIFWKHWIQTKDGQCGSPLVSTRDGFIVGIHSASNFTNTNNYFTSVPKNFMELLTNQEAEQWVSGWRLNADSVLWGGHKVFMVKPEEPFQPVKEATQL [Q197E]	0.119				0.0602	0.0586			0.0872	0.0354	0.0585	0.0765	0.0918	0.0577	0.0516	0.0618	0.0511	0.0669	
MGESLFKGPRDYNPISSSICHLTNESDGHTTSLYGIGFGPFIITNKHLFRRNNGTLVVQSLHGVFKVKDTTTLQQHLVDGRDMIIIRMPKDFPPFPQKLKFREPQREERICLVTTNFQTKSMSSMVSDTSCTFPSGDGIFWKHWIQTKDGQCGSPLVSTRDGFIVGIHSASNFTNTNNYFTSVPKNFMELLTNQEASQWVSGWRLNADSVLWGGHKVFMVKPEEPFQPVKEATQL [Q197S]	0.105	0.0667		0.0568	0.0432	0.0639		0.0685	0.0912			0.105	0.055	0.0604		0.061			
MGESLFKGPRDYNPISSSICHLTNESDGHTTSLYGIGFGPFIITNKHLFRRNNGTLVVQSLHGVFKVKDTTTLQQHLVDGRDMIIIRMPKDFPPFPQKLKFREPQREERICLVTTNFQTKSMSSMVSDTSCTFPSGDGIFWKHWIQTKDGQCGSPLVSTRDGFIVGIHSASNFTNTNNYFTSVPKNFMELLTNQEAPQWVSGWRLNADSVLWGGHKVFMVKPEEPFQPVKEATQL [Q197P]	0.132	0.103	0.0957			0.0593			0.101	0.0592	0.0997			0.0704		0.0694	0.0721	0.0931	
MGESLFKGPRDYNPISSSICHLTNESDGHTTSLYGIGFGPFIITNKHLFRRNNGTLVVQSLHGVFKVKDTTTLQQHLVDGRDMIIIRMPKDFPPFPQKLKFREPQREERICLVTTNFQTKSMSSMVSDTSCTFPSGDGIFWKHWIQTKDGQCGSPLVSTRDGFIVGIHSASNFTNTNNYFTSVPKNFMELLTNQGAQQWVSGWRLNADSVLWGGHKVFMVKPEEPFQPVKEATQL [E195G]	0.135	0.067	0.0656	0.0606	0.0545	0.0552		0.0684	0.0989			0.123	0.0859	0.0873		0.0633	0.0403	0.0746	
MGESLFKGPRDYNPISSSICHLTNESDGHTTSLYGIGFGPFIITNKHLFRRNNGTLVVQSLHGVFKVKDTTTLQQHLVDGRDMIIIRMPKDFPPFPQKLKFREPQREERICLVTTNFQTKSMSSMVSDTSCTFPSGDGIFWKHWIQTKDGQCGSPLVSTRDGFIVGIHSASNFTNTNNYFTSVPKNFMELLTNQEAQQWVSGWRLNADSVLWQGHKVFMVKPEEPFQPVKEATQL [G213Q]	0.0558			0.0459		0.059		0.0531	0.0613	0.061									
MGESLFKGPRDYNPISSSICHLTNESDGHTTSLYGIGFGPFIITNKHLFRRNNGTLVVQSLHGVFKVKDTTTLQQHLVDGRDMIIIRMPKDFPPFPQKLKFREPQREERICLVTTNFQTKSMSSMVSDTSCTFPSGDGIFWKHWIQTKDGQCGSPLVSTRDGFIVGIHSASNFTNTNNYFTSVPKNFMELLTNVEAQQWVSGWRLNADSVLWGGHKVFMVKPEEPFQPVKEATQL [Q194V]	0.102	0.0546		0.066		0.0513			0.111	0.0589		0.067	0.0869	0.0924	0.0645	0.0683		0.0938	
MGESLFKGPRDYNPISSSICHLTNESDGHTTSLYGIGFGPFIITNKHLFRRNNGTLVVQSLHGVFKVKDTTTLQQHLVDGRDMIIIRMPKDFPPFPQKLKFREPQREERICLVTTNFQTKSMSSMVSDTSCTFPSGDGIFWKHWIQTKDGQCGSPLVSTRDGFIVGIHSASNFTNTNNYFTSVPKNFMELLTNMEAQQWVSGWRLNADSVLWGGHKVFMVKPEEPFQPVKEATQL [Q194M]	0.101			0.0673	0.0887	0.0885	0.0931	0.0617	0.0999	0.0636		0.154		0.0916		0.0717	0.0881		0.0652
MGESLFKGPRDYNPISSSICHLTNESDGHTTSLYGIGFGPFIITNKHLFRRNNGTLVVQSLHGVFKVKDTTTLQQHLVDGRDMIIIRMPKDFPPFPQKLKFREPQREERICLVTTNFQTKSMSSMVSDTSCTFPSGDGIFWKHWIQTKDGQCGSPLVSTRDGFIVGIHSASNFTNTNNYFTSVPKNFMELLTNQEAQQWVSGWRLIADSVLWGGHKVFMVKPEEPFQPVKEATQL [N206I]	0.0903				0.0555	0.0522		0.0474	0.0979	0.0625			0.0713	0.0637		0.0426	0.059		
